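96-well plates; 48 h exposure; 5 concentrations. Endpoints by linear interpolation between flanking doses. Not reached: highest tested concentration assigned. GI50 marks 50% less growth.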 Active and inactive are the calls of the source. Cut-off read from the data, not from the text of the source: active = GI50 up to about 1.1 µM and inactive = higher.
What follows are compounds tested on NCI-H322M (assay: NCI tumour cell line growth inhibition, 48 h).
Cc1c2c3ccccc3nc-2n(C)c2ccccc12 was tested, and the GI50 was active: 1.07 µM. In the case of Clc1ccc(-c2nc3ccc4ccccc4c3c3c2CCCC3)cc1, the GI50 was inactive: > 100 µM. For CCOC(=O)c1cnc2oc3ccc(O)cc3c2c1-c1ccccc1, the GI50 was inactive: > 100 µM. O=C(CSc1nc2nncc-2c(O)[nH]1)c1ccc(Cl)cc1 was tested, and the GI50 was inactive: > 100 µM. In the case of O=C1/C(=C/c2ccc(O)cc2)CCc2ccc([N+](=O)[O-])cc21, the GI50 was inactive: > 100 µM. In the case of COc1cccc(-c2nc(O)c3ccccc3n2)c1, the GI50 was inactive: 17.1 µM. For c1ccc(C2=NOC(c3ccccc3)N2C23CC4CC(CC(C4)C2)C3)cc1 (stereo not given), the GI50 was inactive: > 10 µM. For O=C(C(Cl)=C(Nc1ccccc1)Nc1ccccc1)C(Cl)Cl, the GI50 was inactive: 28.9 µM. With CC(C)=CCOc1ccc(-c2coc3cc4c(c(O)c3c2=O)C=CC(C)(C)O4)cc1 the GI50 was inactive: 61.5 µM. ClCc1nnc2n1-c1ccc(Cl)cc1SC2 was tested, and the GI50 was inactive: 11.6 µM. For CC(=O)OC[C@@H](OC(C)=O)[C@H](OC(C)=O)[C@@H]1OC(C)(C)O[C@@H]1C1SCCCS1, the GI50 was inactive: > 100 µM. For COc1c2cc(C(C)(C)C)cc1Cc1cccc(c1OCc1cccc([N+](=O)[O-])c1)Cc1cc(C(C)(C)C)cc(c1OC)Cc1cccc(c1OCc1cccc([N+](=O)[O-])c1)Cc1cc(C(C)(C)C)cc(c1OC)Cc1cccc(c1OCc1cccc([N+](=O)[O-])c1)C2, the GI50 was inactive: > 50 µM. With CCCCNC(=NC#N)NCCCC the GI50 was inactive: > 100 µM. CC(C)(C)OC(=O)NCCC1CNc2ccccc21 (stereo not given) was tested, and the GI50 was inactive: > 100 µM. For CCCC/C=C/C/C=C/CCCCCCCCC(=O)OCC1CCCN2CCCCC12 (stereo not given), the GI50 was inactive: > 100 µM. For CCCCCn1cnc2c1S(=O)(=O)N(C)C(NC(=O)c1ccccc1)=N2, the GI50 was inactive: > 100 µM. In the case of COC1C(O)C(O[C@H]2CC[C@@]3(C)C(CC[C@@H]4[C@@H]3CC[C@]3(C)[C@@H](C(C)OC5OC(CO)C(O)C(O)C5O)CC[C@]43O)C2)OC(C)C1OC1OC(CO)C(O)C(O)C1O (stereo not given in full), the GI50 was inactive: > 100 µM. In the case of Cc1ccc2c(c1)CC1(C2)Cc2ccc(C)cc2C1=O (stereo not given), the GI50 was inactive: 24.3 µM. With Cn1c(N)c(/C=C/C(=O)Oc2ccccc2)c(=O)n(C)c1=O the GI50 was inactive: > 100 µM. In the case of CCN(CC)CCN(C)CCc1ccc(Br)cc1, the GI50 was inactive: > 100 µM. Clc1ccc2c(c1)CC1C[N+]3=C(CCCC3)C1=C2 (stereo not given) was tested, and the GI50 was inactive: > 100 µM. With CC1CC[C@@]2(OC1)OC1C[C@H]3[C@@H]4C/C(=N\N(C)C)[C@@]5(O)CC(O)CC[C@]5(C)[C@H]4CC[C@]3(C)C1[C@@H]2C (stereo not given in full) the GI50 was inactive: 29.8 µM. In the case of C=C[C@H]1CN2CCc3c([nH]c4c([C@@H]5CCCN5C)c(O)ccc34)[C@@H]2C[C@@H]1C[C@H]1c2[nH]c3ccccc3c2CCN1C, the GI50 was inactive: 1.55 µM. In the case of N#Cc1cc([N+](=O)[O-])ccc1NC(=O)C(=O)Nc1n[nH]c(N)n1, the GI50 was inactive: > 100 µM. For Cc1ccc(/C(Cl)=C/C=C(C#N)C#N)cc1, the GI50 was inactive: 12.6 µM. With CC(O)C(C(=O)O)N(CC1(O)OCC(O)C(O)C1O)N=O (stereo not given) the GI50 was inactive: > 100 µM. O=P1(N(CCCl)CCCl)Oc2ccc(Cl)cc2C(C(Cl)(Cl)Cl)c2cc(Cl)ccc2O1 (stereo not given) was tested, and the GI50 was inactive: 21 µM. For O=C1NCC(NC(=O)C(F)(F)F)c2c(Br)sc(Br)c21 (stereo not given), the GI50 was inactive: > 100 µM. In the case of CC1CC/C(=C\c2ccc(F)cc2)C2=C1C(c1ccc(F)cc1)NC(=S)N2 (stereo not given), the GI50 was inactive: 97.3 µM. Cn1c2c(c3ccccc31)CCN(CCCCN1CCN(c3cccc(Cl)c3)CC1)C2=O was tested, and the GI50 was inactive: 13.7 µM. In the case of C[C@]12CCC(=O)C=C1CC[C@@H]1C2CC[C@]2(C)c3nn(-c4ccc(F)cc4)nc3CC12 (stereo not given in full), the GI50 was inactive: > 100 µM. With O=C(N[C@@H]1C=CCC[C@@H]1c1ccccc1)OCc1ccccc1 the GI50 was inactive: 26.7 µM. In the case of Fc1ccccc1/N=c1\oc2ccc(Br)cc2cc1-c1nc2ccccc2[nH]1, the GI50 was inactive: 11.1 µM. O=C1NC(=S)N(c2cccc3ccccc23)C(=O)/C1=C/c1c[nH]c2ccccc12 was tested, and the GI50 was inactive: 2.44 µM. For CC(ON(C(c1ccccc1)C(C)C)C(C)(C)C)c1ccccc1 (stereo not given), the GI50 was inactive: 23.2 µM. In the case of O=C(NCC(C(=O)OCc1ccccc1)C(=O)OCc1ccccc1)OCc1ccccc1, the GI50 was inactive: > 100 µM. For CC1C=C(OC(=O)c2ccccc2)C(=O)C(n2cc(F)c(=O)[nH]c2=O)O1 (stereo not given), the GI50 was inactive: 55.2 µM. For CC(=O)C1C(=O)NC(=O)C1=O (stereo not given), the GI50 was inactive: > 100 µM. For COc1cc(-c2cn(S(=O)(=O)c3ccc(C)cc3)c3ccccc23)nc(-c2cn(S(=O)(=O)c3ccc(C)cc3)c3ccccc23)n1, the GI50 was inactive: 3.28 µM. With COc1cc(/C=C(\C#N)C(=O)c2ccccc2)cc(OC)c1OC the GI50 was inactive: > 100 µM. CC(C)CC(Nc1c(O)ccc2ccccc12)C(=O)O (stereo not given) was tested, and the GI50 was inactive: 24.9 µM. In the case of Cc1cccc2sc(NC(=O)c3cc([N+](=O)[O-])ccc3Cl)nc12, the GI50 was inactive: 7.94 µM. For CC(C)C1=CCC2C(=C1)CCC1C(C)(C(=O)O)CCCC21C (stereo not given), the GI50 was inactive: > 100 µM. In the case of O=C(OCc1ccccc1)C1(N2CN(C3(C(=O)OCc4ccccc4)CCCC3)CN(C3(C(=O)OCc4ccccc4)CCCC3)C2)CCCC1, the GI50 was inactive: > 10 µM. In the case of CCCCc1ccc(Nc2nc(Cl)c3c(ncn3C3CC(Oc4ccc(C)cc4)C(COc4ccc(C)cc4)O3)n2)cc1 (stereo not given), the GI50 was inactive: 74.3 µM. For Cc1ccc(S(=O)(=O)N(CC(O)c2ccccc2)c2ccccc2F)cc1 (stereo not given), the GI50 was inactive: 15 µM. In the case of O=C1NN=C(c2c[nH]c3ccccc23)CC1NCc1ccccc1 (stereo not given), the GI50 was inactive: > 100 µM. In the case of COc1ccccc1NC(=O)C(=O)C(c1cnc2ccc([N+](=O)[O-])cc2n1)[N+](=O)[O-] (stereo not given), the GI50 was inactive: > 100 µM. In the case of Clc1ccc(/C=C/c2csnn2)cc1, the GI50 was inactive: > 100 µM. With CCCN/C(N)=N/C#N the GI50 was inactive: > 100 µM. For CCCCCC#CCOC(=O)C(=[N+]=[N-])P(=O)(c1ccccc1)c1ccccc1, the GI50 was inactive: > 10 µM. Cn1c(=O)c2ccc(-c3ccc(Br)cc3)nc2n(C)c1=O was tested, and the GI50 was inactive: > 100 µM. In the case of COC(=O)[C@@H]1[C@H](O)CCC2=C(CC(=O)c3ccoc3)[C@H](C)CC[C@]21C, the GI50 was inactive: > 50 µM. In the case of Cc1ccc(Nc2nc(=O)[nH]c(=O)[nH]2)cc1N=[N+]=[N-], the GI50 was inactive: > 100 µM. CCn1c(=O)c2c3ccc(O)cc3oc2c2ccc(O)cc21 was tested, and the GI50 was inactive: 41.9 µM. With Nc1c(-c2nc3ccccc3s2)c2ccc([N+](=O)[O-])cc2c(=O)n1-c1cccc(C(=O)O)c1 the GI50 was inactive: 26.2 µM. For COc1cc(CNc2cnc3cc(N)ccc3n2)cc(OC)c1OC, the GI50 was inactive: 68.7 µM. For COc1cc(C=C2C(C)=NN(c3cccc(Cl)c3)C23SCC(=O)N3c2nc3ccccc3s2)ccc1O (stereo not given), the GI50 was inactive: 36.1 µM. For OCc1ccc(C2CC(c3ccco3)=NN2c2ccccc2)o1 (stereo not given), the GI50 was inactive: > 100 µM. For [O-][n+]1onc2c3nn(-c4ccccc4)nc3ccc21, the GI50 was inactive: 16.7 µM. With CC1OC(OC2C(O[C@H]3CC[C@@]4(C)C(=CC[C@H]5[C@@H]6C[C@@H]7O[C@]8(CC[C@@H](C)CO8)[C@@H](C)[C@@H]7[C@@]6(C)CC[C@@H]54)C3)OC(CO)C(O)C2O)C(O)C(O)C1O (stereo not given in full) the GI50 was inactive: 2.01 µM. In the case of COc1ccc2c(c1)CCC(OS(=O)(=O)CC13CCC(CC1=O)C3(C)C)C2=O (stereo not given), the GI50 was inactive: 26.5 µM. With COC(=O)CNC(=O)Nc1cc(N2C(=O)ON3C2C(C)(C)N(O)C3(C)C)ccc1C (stereo not given) the GI50 was inactive: > 100 µM. For Nc1nc(O)c([I+]c2ccccc2)c(=O)[nH]1, the GI50 was inactive: > 100 µM. CCOc1cc(/C=N\N(C)C)cc(/C=N\N(C)C)c1O was tested, and the GI50 was inactive: 64.7 µM. COC(CN(C)C(=O)C(C)NC(=O)c1ccccc1)OC (stereo not given) was tested, and the GI50 was inactive: > 100 µM. CC(C)C(/C=C/c1ccccc1)=N\NC(=S)NN was tested, and the GI50 was inactive: 58.9 µM. For CCC(=O)C(CCN1CCC2(CCCc3ccccc32)CC1)(c1ccccc1)c1ccccc1, the GI50 was inactive: 6.67 µM. With CCN(CC)CCNC(=O)c1cn2c(ccc3sc4ccccc4c(=O)c32)n1 the GI50 was inactive: 6.52 µM. In the case of Cc1ccc(S(=O)(=O)SCc2ccccc2)cc1, the GI50 was inactive: 41.3 µM. With CC(/C=N/N=C(N)N)=N\N=C(N)N the GI50 was inactive: 5.79 µM. O=C(/C=C/c1ccc(-c2ccccc2)cc1)NCc1ccc(C(=O)NCCc2ccccc2)cc1 was tested, and the GI50 was inactive: > 100 µM. In the case of CC(C)C1C(=O)NC(CO)Cc2c[nH]c3c(C(c4c[nH]c5ccccc45)C(O)CO)ccc(c23)N1C (stereo not given), the GI50 was inactive: > 100 µM. In the case of Cn1c(N)c(Cc2ccc(Cl)cc2)c(=O)[nH]c1=O, the GI50 was inactive: > 100 µM. In the case of Nc1nc2c(-c3ccc([N+](=O)[O-])cc3)nnn2c2ccccc12, the GI50 was inactive: > 100 µM. For c1ccc(Cn2c(-c3ccc(-c4ccccc4)cc3)cc3ccccc32)cc1, the GI50 was inactive: > 100 µM. In the case of O=C1NCC2(CCNCC2)N1c1ccccc1, the GI50 was inactive: > 100 µM. In the case of O=C(c1ccc(/N=C/c2ccccc2O)cc1)c1ccc(/N=C/c2ccccc2O)cc1, the GI50 was inactive: > 100 µM. For O=[N+]([O-])c1ccc(C(c2c[nH]c3ccccc23)c2c[nH]c3ccccc23)cc1, the GI50 was inactive: 14.4 µM. Cc1ccc(S(=O)(=O)C2=C([Si](C)(C)C)C3CC2[C@@H]2C4C=CC(CC4)[C@H]32)cc1 (stereo not given in full) was tested, and the GI50 was inactive: > 100 µM. For O=C1C=CC(=O)C(N(CCO)CCO)=C1.O=C1C=CC2(O)OCCN(CCO)C2=C1, the GI50 was inactive: > 100 µM. C/C(=N\NC(=S)N1CCN(c2ccccn2)CC1)c1ccccn1 was tested, and the GI50 was active: 0.00398 µM. In the case of COc1cc(COC(=O)N2CC=CC2C(=O)O)c([N+](=O)[O-])cc1OC (stereo not given), the GI50 was inactive: > 100 µM. In the case of N=C(N)SCc1ccc2c(c1)Sc1ccccc1O2, the GI50 was inactive: 6.08 µM. In the case of O=C(O)CCO/N=C1/C(=C2/C(=O)Nc3ccccc32)Nc2ccccc21, the GI50 was inactive: 20.8 µM. For C[C@@H]1[C@@H](c2ccccc2)O[B-](c2ccccc2)(c2ccccc2)N1C, the GI50 was inactive: 70.6 µM. With O=C1/C(=C/c2ccccc2)CCc2ccccc21 the GI50 was inactive: 15 µM. With CC1=NN(C(=O)c2ccccc2O)C(=O)/C1=C/c1cccc([N+](=O)[O-])c1 the GI50 was inactive: 9.51 µM. With O=C(CCCn1ccnc1[N+](=O)[O-])NCCn1ccnc1[N+](=O)[O-] the GI50 was inactive: > 100 µM. For CCOC(=O)C1=C(C)NC(=S)NC1c1ccccc1 (stereo not given), the GI50 was inactive: > 100 µM.
